# Data as given in PubChem BioAssay AID1851 (National Center for Advancing Translational Sciences (NCATS), 2009).
# The list shows a part of the results, in another mix than the full data. Records with an inconclusive call do not appear. The source made the active and inactive calls. Calls come from the whole dose curve; as a rule, active = well fitted curve in the direction sought with a large enough effect; inconclusive = small, poorly fitted or top-dose-only effect, or effect the other way; inactive = no such curve, though single readings can be large or run the other way.
# Molecular target: Cytochrome P450 2C19 (Homo sapiens) (UniProt P33261)
# Sequence of UniProt P33261 (P33261 whole entry, looked up): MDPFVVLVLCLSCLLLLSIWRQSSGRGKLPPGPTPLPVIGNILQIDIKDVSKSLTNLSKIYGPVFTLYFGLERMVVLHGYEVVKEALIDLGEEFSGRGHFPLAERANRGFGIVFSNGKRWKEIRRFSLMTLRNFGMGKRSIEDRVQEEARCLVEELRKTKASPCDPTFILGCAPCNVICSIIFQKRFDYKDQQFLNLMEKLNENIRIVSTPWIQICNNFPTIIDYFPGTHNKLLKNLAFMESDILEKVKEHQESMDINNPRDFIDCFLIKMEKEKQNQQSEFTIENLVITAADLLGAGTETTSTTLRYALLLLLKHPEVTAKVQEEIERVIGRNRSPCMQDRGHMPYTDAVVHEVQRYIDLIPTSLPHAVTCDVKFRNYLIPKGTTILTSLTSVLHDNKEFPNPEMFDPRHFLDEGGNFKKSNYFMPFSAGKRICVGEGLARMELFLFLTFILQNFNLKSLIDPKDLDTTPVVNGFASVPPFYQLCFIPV
# Assay: Cytochrome panel assay with activity outcomes
# Settings: recombinant CYP, pro-luciferin dealkylation, luminescence, p450-cyp2c19; series mostly up to 57.1 µM
row,Compound,AC50
1,CN1[C@@H]2CC[C@H]1CC(OC(=O)[C@@H](O)c1ccccc1)C2 (some centres not stated),inactive
2,Clc1ccc(CS[C@@H](Cn2ccnc2)c2ccc(Cl)cc2Cl)cc1,active: 10 nM
